Laboratory results from the supplement of paper PMC12217912.
The other results are listed elsewhere or left out. Sequences were assembled here from the parent chain. Values near 0.05 are background.

B1: TEV protease; numbered along this chain (parent)
chain: MGESLFKGPRDYNPISSSICHLTNESDGHTTSLYGIGFGPFIITNKHLFRRNNGTLVVQSLHGVFKVKDTTTLQQHLVDGRDMIIIRMPKDFPPFPQKLKFREPQREERICLVTTNFQTKSMSSMVSDTSCTFPSGDGIFWKHWIQTKDGQCGSPLVSTRDGFIVGIHSASNFTNTNNYFTSVPKNFMELLTNQEAQQWVSGWRLNADSVLWGGHKVFMVKPEEPFQPVKEATQL

Variants of: B1
Assay: raw area under fraction-flipped curve 0-4 h after induction (AUC4h, not background-subtracted), DNA-recorder readout of cleavage of the substrate (dimensionless); higher = more cleavage of the substrate by the protease variant
Conditions: temperature: 34 °C; time window: 0-4 h after rhamnose induction
Procedure: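 In vivo DNA recorder in E. coli TOP10(DE3) ΔrhaA at 34 °C. Each TEVp single-site mutant (parent TEVp 0) is paired with a single-site variant of the 7-mer TEVs (canonical ENLYFQ|S). The substrate sits between flexible linkers in a Bxb1-sfGFP-TEVs-SsrA fusion, so cleavage stabilises Bxb1 and speeds flipping of a recombination array, read by NGS. The value is the raw area under the fraction-flipped curve over 0-4 h after rhamnose induction (AUC4h), with ≥20 reads per time point. It is not background-subtracted; inactive controls average about 0.047.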
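Note: Bxb1 expression induced with 0.2% (w/v) L-rhamnose at OD600 near 0.5, cultures sampled hourly, flipped fraction per protease–substrate barcode pair counted by paired-end Illumina sequencing.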

Variant	area with substrate ENLAFQS	area with substrate ENLCFQS	area with substrate ENLDFQS	area with substrate ENLEFQS	area with substrate ENLFFQS	area with substrate ENLHFQS	area with substrate ENLIFQS	area with substrate ENLKFQS	area with substrate ENLLFQS	area with substrate ENLMFQS	area with substrate ENLNFQS	area with substrate ENLPFQS	area with substrate ENLRFQS	area with substrate ENLSFQS	area with substrate ENLVFQS	area with substrate ENLWFQS	area with substrate ENLQFQS	area with substrate ENLGFQS	area with substrate ENLTFQS
R160I	0.0671	0.0472	0.0674	0.0674	0.0833	0.059	0.0796	0.112	0.0233	0.0795	0.0609	0.0614	0.0703	0.0603	0.0627	0.0645	–	–	–
P104L	0.0537	–	0.0551	0.0508	0.0435	0.0497	0.067	0.0513	0.0596	–	0.0649	–	0.0605	0.0497	0.053	0.0511	0.036	–	–
T30S	0.0492	–	0.0637	0.0675	0.083	0.0646	0.079	0.0798	0.0676	0.0594	0.0588	0.0705	0.0717	0.0648	–	0.0479	0.0722	0.0684	–
S16M	0.0877	0.0104	0.0453	0.0614	0.0801	0.079	0	0.099	0.0697	0.0739	0.0731	–	0.0958	0.0712	0.0696	–	0.0768	–	–
H168L	0.0644	0.0677	–	–	0.0471	0.075	–	–	0.0707	–	0.0599	0.0526	–	0.0584	–	0.0553	0.0549	–	–
P40S	0.0609	0.0806	0.0802	0.061	0.0892	0.0742	0.0368	0.0797	–	0.0881	0.0834	0.0629	0.0729	0.0622	–	0.132	0.0898	0.0316	–
D128Y	0.0847	0.0885	–	–	0.109	0.0758	–	0.11	0.105	–	0.0763	0.0665	–	0.0702	–	–	–	–	0.0795
T192I	0.0606	0.0774	0.0637	0.0675	0.0866	0.0722	0.075	0.0722	0.0708	0.0743	0.0649	0.0607	0.0727	0.0591	0.0746	0.0739	0.0715	0.0605	0.0718
N175K	0.0593	–	0.0702	0.0638	0.103	0.0582	0.104	0.0817	0.0827	0.096	0.0647	–	0.0739	0.0615	0.0641	0.0768	–	0.0687	–
D128R	0.0566	0.098	0.0507	0.0594	0.0839	–	0.112	–	0.0814	0.0814	0.0784	0.042	–	–	–	–	0.13	–	–
S32R	0.0633	0.0559	0.0593	0.0568	0.0975	0.0726	0.0842	0.0714	0.0707	0.0767	0.0751	–	–	0.0576	0.0813	–	–	–	0.0709
E224K	0.0487	–	0.0677	0.0418	0.0856	0.0782	0.0822	0.076	–	–	0.0681	–	0.0902	0.0661	0.0856	0.0723	0.0617	0.0772	–
R160K	0.0543	–	0.0676	0.0759	0.096	–	0.0833	0.0776	–	0.0928	0.0537	0.069	0.0801	0.049	–	0.0711	–	–	–
L5E	0.0516	–	0.0675	0.0769	0.0848	0.0472	–	0.0796	0.0749	0.0766	0.0561	0.0388	0.08	0.0488	0.102	0.0731	–	0.0562	0.0242
P40N	0.0572	–	0.0474	0.0613	0.084	–	0.0721	0.0857	–	–	0.086	–	0.086	0.0812	–	0.0669	–	0.0614	–
V64R	0.0748	–	0.0623	–	–	0.0689	0.0967	0.0463	–	–	0.0581	0.0259	–	0.0666	–	–	–	–	0.0999
E224V	0.0737	0.0709	0.0557	0.0703	0.0897	0.0747	–	0.0716	0.0456	0.086	0.0187	–	–	–	–	–	–	0.0468	–
T72H	0.0383	0.0636	0.0642	0.0647	0.0728	0.0632	–	0.111	0.0665	0.094	0.0536	0.0572	0.0771	0.0462	–	0.0315	–	–	–
T72V	0.0592	–	0.0597	0.0811	0.0953	0.0814	0.0653	0.0782	0.0605	0.0777	0.0704	0.0591	0.0742	0.0543	–	0.0953	0.0569	0.0667	–
E224S	0.0685	0.0706	0.0758	0.0615	0.105	0.0739	0.0774	0.0707	0.0325	0.0712	0.0612	0.0513	0.076	0.0747	0.0626	0.0846	–	0.0688	–
E224W	0.0758	0.0834	0.0603	–	0.113	0.0557	0.0773	0.0804	0.0687	0.0599	0.0662	0.044	0.0752	0.0615	0.0742	0.0612	0.0769	0.065	–
H168K	0.0547	0.0524	0.0698	–	0.0506	0.0581	0.0631	0.0692	–	0.065	0.0639	0.0475	–	–	–	–	0.0474	0.0778	–
G136T	0.0681	0.0615	0.0463	0.0566	0.0706	0.0633	0.0755	0.0681	0.0622	0.071	0.064	0.0703	0.0683	0.0607	0.0753	0.0437	0.0706	0.0677	–
E224A	0.0476	0.0818	0.0612	–	0.104	0.0738	0.0801	0.0591	0.0737	0.0855	0.0604	0.0725	0.0769	0.063	0.0779	0.0945	0.0613	0.0545	–
D11W	0.0642	0.0841	0.0622	0.0648	0.0636	0.0724	0.0848	0.0794	0.0665	–	0.0639	0.0518	0.0694	0.0512	–	0.0605	–	0.077	0.0791
